The full ranking holds about 33,000 sequences; the median of “E-score (-0.5 to 0.5)” is about -0.043, and the highest 2% start at about 0.37. Some of the results follow.
target: T1, Upc2 (UniProt Q12151); assay: PBM E-score (8-mer binding enrichment) (E-score (-0.5 to 0.5)); higher = stronger / more preferred TF binding; most listed sequences are background and not binding sites; settings: protein concentration: 200 nM; construct: GST-full length
T1 sequence: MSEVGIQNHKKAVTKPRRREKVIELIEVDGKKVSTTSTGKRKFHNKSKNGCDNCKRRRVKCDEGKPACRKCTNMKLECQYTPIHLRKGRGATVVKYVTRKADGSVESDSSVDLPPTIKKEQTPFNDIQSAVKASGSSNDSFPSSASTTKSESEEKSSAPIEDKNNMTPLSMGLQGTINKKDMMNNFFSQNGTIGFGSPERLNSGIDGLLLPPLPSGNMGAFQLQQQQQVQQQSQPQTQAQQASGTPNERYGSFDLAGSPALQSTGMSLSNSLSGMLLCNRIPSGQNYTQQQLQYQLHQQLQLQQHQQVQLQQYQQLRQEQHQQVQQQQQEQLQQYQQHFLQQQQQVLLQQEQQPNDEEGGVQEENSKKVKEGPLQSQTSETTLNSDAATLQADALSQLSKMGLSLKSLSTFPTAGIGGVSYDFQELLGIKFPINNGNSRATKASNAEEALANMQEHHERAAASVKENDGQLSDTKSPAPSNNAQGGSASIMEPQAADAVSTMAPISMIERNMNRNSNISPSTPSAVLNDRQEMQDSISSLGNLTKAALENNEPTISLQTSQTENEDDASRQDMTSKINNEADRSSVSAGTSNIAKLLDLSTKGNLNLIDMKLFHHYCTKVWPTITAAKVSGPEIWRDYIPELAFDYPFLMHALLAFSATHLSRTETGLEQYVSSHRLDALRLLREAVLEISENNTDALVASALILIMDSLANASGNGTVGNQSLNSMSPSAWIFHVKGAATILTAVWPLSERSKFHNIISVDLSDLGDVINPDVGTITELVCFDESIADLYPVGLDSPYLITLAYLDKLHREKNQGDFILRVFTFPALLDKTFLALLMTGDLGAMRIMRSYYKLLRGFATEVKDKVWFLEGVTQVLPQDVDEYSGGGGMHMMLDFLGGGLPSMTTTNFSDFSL
Protocol: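 Universal 'all 10-mer' protein binding microarrays (Agilent AMADID 015681) probed with GST-tagged S. cerevisiae TFs (full-length or DBD) made by in vitro transcription/translation (PURExpress), about 100-200 nM. Bound TF was detected with fluorescent anti-GST. Each ungapped 8-mer (which stands for itself and its reverse complement) is scored by the PBM enrichment score (E-score), a modified Wilcoxon-Mann-Whitney statistic from -0.5 to +0.5, computed with the Universal PBM Analysis Suite. Scale: above 0.35 generally sequence-specific binding.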

Sequence	PBM E-score
TATTACCA	0.0142
CTCCTAGC	-0.256
ACGAATAG	0.335
CCAGTAGG	-0.233
ACTCTCCG	0.0605
TCCCGCAA	-0.0767
CGTGACGA	0.0729
ACACTACA	0.0722
ACGGAGGC	0.0956
GGAGTTGA	0.00563
GATCACGC	-0.101
GGCGTTCA	0.0581
ACCTAAAA	0.107
ACCCACTG	-0.107
CAGTACCC	-0.0567
TCAGGACA	-0.0425
CGCGTCTC	0.123
CATCGCAC	0.12
GACCGTTA	0.118
GCGGTAGA	-0.0562
TATACAGA	0.236
CGCATACA	0.114
ACTCTTAT	0.144
CGGCGTTC	0.163
GCGGAATA	-0.0629

Sequence	PBM E-score
GCATGAAC	-0.00105
CAAGACGG	-0.255
ACCGAATA	0.0988
GTCCCGGA	0.0334
ACCATCGT	0.276
CAGATGGG	-0.318
CACCATGC	-0.295
GAGTTTTA	0.117
AGCACAAA	-0.0797
CCTAGTAG	-0.148
ATTGATAA	-0.149
CCCGACGA	0.0367
CCTGGTAA	-0.0883
GAGCTTTA	0.117
GCGGGACC	-0.18
TAGACGGA	-0.0125
AAGCTGCT	-0.179
ACACGTAG	-0.234
CCTCGAGA	-0.0146
ACCTCACT	-0.171
ACACATAA	0.104
CCCCTTAA	-0.267
TCTCGGCA	0.00444
AACGGGAG	0.201
TCACGCGA	0.103

Sequence	PBM E-score
GCACGCAC	-0.0969
AGGGGAGA	-0.126
AGTGTACA	-0.0815
TTTTAAAA	0.135
CGCAGTCC	0.0548
GAGGCTTA	-0.239
CTTCCAAC	-0.109
GTGGCTTA	-0.116
CGGTAGGC	-0.0982
CGTAGCAA	0.282
GTCAAGTA	-0.0363
AAAGAGTG	0.0172
CACTGCGC	-0.2
AGTAAAAG	0.168
GTCCACTA	-0.304
CGAAAGTC	0.0808
CAAAAGTG	-0.142
CGCTGTCC	0.146
GAGACTCC	-0.092
AGGAGAGA	-0.237
TGGAAGAA	-0.105
ATCATGCC	-0.154
ACTCTACC	0.018
GGTGGTAA	-0.0378
AACCCAGG	-0.155

Sequence	PBM E-score
AGTCGGTA	0.0632
ATTGCGAA	-0.145
GCGTGGAA	-0.0163
GTACAAAC	0.248
GGCATGTA	0.224
TATGGTAA	0.0759
ATAATTAG	-0.0986
ACCATGTG	-0.0548
TCCCATCA	-0.258
AAAGCGTC	-0.102
AGCCCGGC	-0.0461
AAAGTACT	0.0188
CCCACAGC	0.0191
CATCCACC	-0.1
GTAAGAAA	0.144
CCAGACCG	0.108
CATAACCA	0.0037
ATTAGTGA	-0.00456
GTGAGTCA	-0.222
AACGAGTC	0.414
AGCATTGG	-0.219
AGCCTCGC	0.103
ACATGATG	-0.247
AATTACGG	0.0727
ATAGAATC	0.0733

Sequence	PBM E-score
AATGAAAT	0.147
AACTCGGT	0.0753
TCTCTGAA	-0.158
GCTCTACC	-0.101
AAAAAGAA	-0.0172
AGTATCCC	0.0247
AACATTGT	0.0538
AACCCATA	0.176
GCTCCACC	-0.0776
ACCCCTCG	0.129
AGCTCAAC	-0.0394
AGTGACTG	-0.174
ACCGTCGG	0.0664
ATCGCCGG	-0.13
GTTTTTAA	0.102
AAAATCTA	-0.00788
AAACTCTA	-0.0759
CAGGTTAA	0.168
CTATGAGA	-0.221
AGTGCTGC	0.022
CAGTTATC	-0.128
AGCGGCCA	-0.256
CGATCCCC	0.0691
AAAATAGA	-0.00515
ATTCAGTC	-0.0361

Sequence	PBM E-score
AAATCACA	-0.0177
GATGCTAC	0.101
CCCGTGCC	-0.0508
ACGAGAGA	0.343
ATGATGGC	-0.228
AGCTACAA	-0.0549
CTGGAACA	0.00095
GCGCTGCA	-0.0902
GTCCCGCA	-0.212
CGCGCTGC	-0.0738
CCCGCTGC	-0.234
ACAGGGCA	-0.0786
GTCTTATA	0.251
GGTATTCA	-0.00633
CACCTGTC	-0.166
AGCACTCC	-0.182
CAGATAAG	-0.022
ACGCGAAA	0.24
CTCGATCA	0.0617
AGTTGATA	-0.0653
AGTCACTC	-0.141
GACTCACA	-0.167
CTGAACAG	-0.114
AGAGTCGA	-0.0797
CTGACGAA	-0.095

Sequence	PBM E-score
ATGGGATC	-0.151
CCCCACCA	-0.00292
GACGCTAA	0.00614
GCACTGCA	-0.0949
ATCTAGTC	-0.226
AAAACTGT	0.0766
AAACTTAC	0.101
AGCTAAAC	0.215
CGTCCTCC	-0.155
CGTTATGA	-0.104
CGGTCACG	0.0102
GCCGGCTA	-0.253
AGCAAACC	0.0163
ACGGTCCC	0.0813
AGGGCTAC	-0.113
AGCAGCTC	-0.169
ATGGGTCC	-0.164
CAGATCGC	0.0291
AGCGGGAG	-0.165
ATATCCCC	-0.284
GGGTCACC	-0.356
CGCTCATC	0.218
